Source: the supplement of paper PMC8728848
The other results are listed elsewhere or left out.

Experiments:
Experiment in all cases: glycan array binding signal (z-score within array); higher = stronger binding
Settings in all cases: glycan notation: IUPAC condensed, linker removed
[1] = target: GlcNAc(b1-3)Gal(b1-4)GlcNAc(b1-6)[Gal(b1-3)]GalNAc
Method in brief: (§1)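 Columns mapping to the same glycan were averaged after glycan names were converted to IUPAC-condensed notation. The data come from 3228 arrays in the Consortium for Functional Glycomics database, limited to those with an available protein sequence. Binding is reported as a within-array Z-score averaged across arrays of one protein sequence and across linkers.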

[2] = target: GlcNAc(b1-3)Gal(b1-4)GlcNAc(b1-6)[GlcNAc(b1-3)Gal(b1-3)]GalNAc
Method in brief: as §1

[3] = target: GlcNAc(b1-3)Gal(b1-4)GlcNAc(b1-6)[GlcNAc(b1-3)]Gal(b1-4)GlcNAc
Method in brief: as §1

[4] = target: GlcNAc(b1-3)GalNAc
Method in brief: as §1

[5] = target: GlcNAc(b1-3)Man
Method in brief: as §1

[6] = target: GlcNAc(b1-3)[GlcNAc(b1-4)][GlcNAc(b1-6)]GlcNAc
Method in brief: as §1

[7] = target: GlcNAc(b1-3)[GlcNAc(b1-6)]Gal(b1-4)GlcNAc
Method in brief: as §1

[8] = target: GlcNAc(b1-3)[GlcNAc(b1-6)]GalNAc
Method in brief: as §1

[9] = target: GlcNAc(b1-4)Gal(b1-4)GlcNAc
Method in brief: as §1

[10] = target: GlcNAc(b1-4)GlcNAc
Method in brief: as §1

[11] = target: GlcNAc(b1-4)GlcNAc(b1-4)GlcNAc
Method in brief: as §1

[12] = target: GlcNAc(b1-4)GlcNAc(b1-4)GlcNAc(b1-4)GlcNAc(b1-4)GlcNAc
Method in brief: as §1

[13] = target: GlcNAc(b1-4)GlcNAc(b1-4)GlcNAc(b1-4)GlcNAc(b1-4)GlcNAc(b1-4)GlcNAc
Method in brief: as §1

[14] = target: GlcNAc(b1-4)[GlcNAc(b1-6)]GalNAc
Method in brief: as §1

[15] = target: GlcNAc(b1-6)Gal(b1-4)GlcNAc
Method in brief: as §1

[16] = target: GlcNAc(b1-6)GalNAc
Method in brief: as §1

[17] = target: GlcNAc6S(b1-3)Gal(b1-4)GlcNAc
Method in brief: as §1

[18] = target: Kdn(a2-3)Gal(b1-3)GalNAc
Method in brief: as §1

[19] = target: Kdn(a2-3)Gal(b1-3)GlcNAc
Method in brief: as §1

B1: PX9937A-bvu-521-23-521 (Bacteroides vulgatus) (protein)
chain: LDLAPEDYYGAGNFWKEASQPKAFMLGLHAQLRSYYDMFYTLGELRGGTQRVGTSSLNTSLNYADIRSQNISEDIPGISNWNGLYSPIMQVNHFIQEVENGCTFLDDATRSRYLGQAYGMRALYYFMLYRTFGGVPLITKVDILDGKPSADKFYVERATPEATMEFIKADINKSENYFGNNTSFDAYDWSRYATLMLKAEIYMWAAKVSITGFTATGATDLQTAKTALSGIIGHFELMDNFASIFSCDNKKNTEIIFAMPFIEGEASNDGGRFLYQDAVFLGQAYGRNGKVIEKDTLNLKGTGGVFRDEYTEDFWKTFKEGDSRRDATFMEYYMKNDNGTLSEFGCVMKKRIGTINSNDNRIYISDIPVYRYADALLMMAEIENGLNNPCASYINEVRKRAYGDTFEENKYTEGSYAENELAILQERDKEFVSEGKRWFDVLRMHDASGRSLVFSANANYPGTNPILGTEEAYKMLWPVNIGTLNVNPLLTQTPGYGKK
- glycan array binding signal (z-score) [1]: 0.239
- glycan array binding signal (z-score) [2]: -0.402
- glycan array binding signal (z-score) [3]: -0.214
- glycan array binding signal (z-score) [4]: -0.286
- glycan array binding signal (z-score) [5]: -0.399
- glycan array binding signal (z-score) [6]: -0.315
- glycan array binding signal (z-score) [7]: -0.227
- glycan array binding signal (z-score) [8]: -0.347
- glycan array binding signal (z-score) [9]: -0.354
- glycan array binding signal (z-score) [10]: -0.09
- glycan array binding signal (z-score) [11]: -0.431
- glycan array binding signal (z-score) [12]: -0.205
- glycan array binding signal (z-score) [13]: -0.131
- glycan array binding signal (z-score) [14]: -0.368
- glycan array binding signal (z-score) [15]: 1.73
- glycan array binding signal (z-score) [16]: -0.127
- glycan array binding signal (z-score) [17]: 0.188
- glycan array binding signal (z-score) [18]: 2.84
- glycan array binding signal (z-score) [19]: -0.441
